Here are results for two molecules from patent US20250223354A1 (BIOTHEUS, published 2025).

The target in test [1] is T1, cynomolgus monkey PVRIG-Fc protein (cynomolgus monkey, UniProt Q6DKI7 41-171 (human entry), limits assumed).
T1 construct: no signal peptide limits stated; Bivalent antigen; also called Cynomolgus PVRIG-hFc; not shown: human Fc (hFc)
T1 chain: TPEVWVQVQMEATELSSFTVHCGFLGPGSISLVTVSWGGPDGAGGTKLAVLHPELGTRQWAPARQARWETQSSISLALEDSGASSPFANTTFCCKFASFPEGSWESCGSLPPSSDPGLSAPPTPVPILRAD
Kind of test: BLI (ForteBio), antibody on AHQ sensor, 100 nM Fc antigen, bivalent, 1:1 model. In general terms: In BLI a coated tip is dipped into the sample, and binding shifts an interference pattern.

In test [2] the target is T2, human PVRIG expressed on cells (human, UniProt Q6DKI7 41-326).
T2 construct: whole, on cells; cDNA encoding human PVRIG in pCHO1.0 for CHO cells; also called CHO-huPVRIG cells
T2 sequence (looked up): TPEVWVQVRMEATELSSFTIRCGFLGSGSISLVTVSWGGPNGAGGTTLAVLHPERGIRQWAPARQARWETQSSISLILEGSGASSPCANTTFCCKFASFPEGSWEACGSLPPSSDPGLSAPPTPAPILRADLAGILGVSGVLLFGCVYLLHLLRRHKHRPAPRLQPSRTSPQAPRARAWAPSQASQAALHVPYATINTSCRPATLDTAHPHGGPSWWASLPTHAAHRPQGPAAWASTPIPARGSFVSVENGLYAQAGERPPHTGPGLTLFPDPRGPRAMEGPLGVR
Kind of test: flow cytometry, CHO-huPVRIG cells. Background: Flow cytometry measures light scatter and fluorescence of single cells or particles in a stream.

The target in test [3] is T3, mouse PVRIG overexpressed on CHO cells (mouse, UniProt A0A1B0GS01 1-234).
T3 construct: also called CHO-muPVRIG cells
T3 sequence: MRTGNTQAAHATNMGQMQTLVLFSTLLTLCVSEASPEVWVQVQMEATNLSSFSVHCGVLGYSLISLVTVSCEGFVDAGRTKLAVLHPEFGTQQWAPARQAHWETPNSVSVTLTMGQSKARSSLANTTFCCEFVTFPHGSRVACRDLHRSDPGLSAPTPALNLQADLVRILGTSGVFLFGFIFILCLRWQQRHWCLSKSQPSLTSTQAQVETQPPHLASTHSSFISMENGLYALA
The test can be described thus: flow cytometry, CHO-muPVRIG cells.

Test [4] deals with T4, cynomolgus PVRIG overexpressed on CHO cells (cynomolgus, UniProt A0A2K5WVV8 1-322).
T4 construct: whole, on cells; also called CHO-cynoPVRIG cells
T4 sequence: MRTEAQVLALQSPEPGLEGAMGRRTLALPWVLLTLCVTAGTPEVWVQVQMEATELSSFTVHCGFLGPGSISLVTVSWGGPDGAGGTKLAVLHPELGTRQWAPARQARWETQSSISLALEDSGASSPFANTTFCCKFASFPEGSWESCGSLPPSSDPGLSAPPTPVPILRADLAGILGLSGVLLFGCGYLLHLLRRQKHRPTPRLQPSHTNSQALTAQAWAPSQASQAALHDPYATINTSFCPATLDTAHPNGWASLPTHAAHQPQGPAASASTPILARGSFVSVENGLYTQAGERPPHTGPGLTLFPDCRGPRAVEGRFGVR
Kind of test: flow cytometry, CHO-cynoPVRIG cells.

For test [5], the target named is T5, cynomolgus monkey TIGIT-his protein (cynomolgus monkey).
T5 construct: also called Cynomolgus TIGIT-his; not shown: his tag
The test can be described thus: BLI (ForteBio), antibody on AHQ sensor, 100 nM antigen, monovalent, 1:1 model.

Another test has as its target T6, human PVRIG-his protein (human, UniProt Q6DKI7 41-171, limits assumed).
T6 construct: not shown: his tag
T6 sequence: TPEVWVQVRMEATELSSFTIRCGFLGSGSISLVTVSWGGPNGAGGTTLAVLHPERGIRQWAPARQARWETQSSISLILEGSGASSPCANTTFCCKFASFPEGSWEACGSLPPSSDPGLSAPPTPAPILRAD
The description is as above.

The target of test [6] is T7, cynomolgus TIGIT overexpressed on CHO cells (cynomolgus, UniProt A0A7N9I9V4 89-312).
T7 construct: whole, on cells; also called CHO-cynoTIGIT cells
The test can be described thus: flow cytometry, CHO-cynoTIGIT cells.

For test [7], the target named is T8, mouse TIGIT overexpressed on CHO cells (mouse, UniProt P86176 29-249).
T8 construct: whole, on cells; also called CHO-muTIGIT cells
T8 sequence (looked up): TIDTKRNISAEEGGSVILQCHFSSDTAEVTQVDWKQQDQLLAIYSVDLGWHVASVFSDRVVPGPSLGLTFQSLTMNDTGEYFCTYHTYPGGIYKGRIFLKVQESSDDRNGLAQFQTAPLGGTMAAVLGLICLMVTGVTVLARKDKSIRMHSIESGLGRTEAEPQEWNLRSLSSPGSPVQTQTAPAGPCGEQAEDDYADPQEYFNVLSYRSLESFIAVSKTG
The test can be described thus: flow cytometry, CHO-muTIGIT cells.

Test [8] addresses T9, human PVRIG protein (coated, co-binding ELISA) (human, UniProt Q6DKI7 41-171, limits assumed).
T9 construct: Whole entry named
T9 sequence (looked up): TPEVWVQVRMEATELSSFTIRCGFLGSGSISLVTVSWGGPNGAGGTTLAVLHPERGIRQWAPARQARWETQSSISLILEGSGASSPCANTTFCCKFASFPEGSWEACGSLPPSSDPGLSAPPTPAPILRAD
The test can be described thus: co-binding (sandwich) ELISA: coated human PVRIG protein, antibody titrated, detected with biotin-labeled TIGIT protein 1 ug/mL and SA-HRP, absorbance 450 nm.

In test [9] the target is T10, human PVRIG protein with mouse IgG2a Fc tag (human; mouse, UniProt Q6DKI7 41-171, limits assumed).
T10 construct: Whole entry named; not shown: mouse IgG2a Fc tag
T10 sequence (looked up): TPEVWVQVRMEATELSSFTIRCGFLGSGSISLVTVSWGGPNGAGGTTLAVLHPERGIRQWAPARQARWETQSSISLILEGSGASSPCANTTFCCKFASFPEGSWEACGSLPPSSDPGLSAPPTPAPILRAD
Kind of test: flow cytometry, competition: human PVRIG-mouse IgG2a Fc (1 ug/mL) binding to CHO-huCD112 cells.

Test [10] addresses T8, mouse TIGIT overexpressed on CHO cells. Kind of test: flow cytometry, competition with mouse CD155-mouse IgG2a Fc (2 ug/mL) on CHO-muTIGIT cells.
For test [11], the target named is T5, cynomolgus monkey TIGIT-his protein. Kind of test: BLI (ForteBio), antibody on AHQ sensor, 100 nM antigen, monovalent; W.B = weak binding.
T5 sequence (chain, as listed by the source): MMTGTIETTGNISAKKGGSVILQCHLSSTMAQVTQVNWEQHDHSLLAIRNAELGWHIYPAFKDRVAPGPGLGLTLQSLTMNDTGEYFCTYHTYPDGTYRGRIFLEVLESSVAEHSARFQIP

T7 sequence (A0A7N9I9V4 entry or part of it): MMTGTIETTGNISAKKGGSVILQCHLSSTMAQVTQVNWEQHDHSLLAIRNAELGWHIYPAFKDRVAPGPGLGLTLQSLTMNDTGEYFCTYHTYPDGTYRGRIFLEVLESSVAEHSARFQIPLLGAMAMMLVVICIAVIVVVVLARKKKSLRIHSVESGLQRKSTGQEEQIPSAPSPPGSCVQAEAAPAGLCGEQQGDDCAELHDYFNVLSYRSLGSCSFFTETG

B1: anti-TIGIT-anti-PVRIG bispecific antibody TP-003-009 (bispecific antibody)
heavy: QVQLVQSGAEVKKPGSSVKVSCKASGGTESVDAISWVRQAPGQGLEWMGDIIPFFDTDYAQKFQGRVTITADESTSTAYMELSSLRSEDTAVYYCAREGGTSWTHFFDLWGRGTLVTVSSASTKGPSVFPLAPSSKSTSGGTAALGCLVKDYFPEPVTVSWNSGALTSGVHTFPAVLQSSGLYSLSSVVTVPSSSLGTQTYICNVNHKPSNTKVDKKV[human IgG1 Fc not given here]GGGSGGGGSGQLQLQESGPGLVKPAETLSLTCTVSGGSISSYDHYWTWIRQPPGKCLEWIGTVYYSGSTFHNPSLKSRVTIPVDTSKNQFSLKLSSVTAADTAVYYCARVGPDVSHPPFDYWGQGTLVTVSSGGGGSGGGGSGGGGSGGGGSG[about 100 residues not given here]
light: [about 200 residues not given here]
notes: human IgG1; made in HEK293; also called Anti-TIGIT/PVRIG bispecific antibody TP-003-009
As for B1, the Kd in test [1] is 0.236 nM; in [5], 29 nM; in the test with human PVRIG-his protein, 0.102 nM. Besides, the EC50 (usually the concentration giving half of the maximal effect) came out at 2.03 nM in test [2]; 3.63 nM in test [3]; 0.758 nM in test [4]; 3.5 nM in [6]; 8.06 nM in test [7]. Moreover, the EC50 (read off the curve) (as a rule, the concentration giving half of the maximal effect) in test [8] was around 0.3 nM. The IC50 – broadly, the midpoint of a concentration-inhibition curve – in test [9] amounted to 0.988 nM; in test [10] it was 3.48 nM.

B2: anti-TIGIT-anti-PVRIG bispecific antibody TP-001-002-003 (bispecific antibody, human IgG1, kappa)
heavy 1: QVQLVQSGAEVKKPGASVKVSCKASGYAFTGYYMHWVRQAPGQGLEWMGSIIPFSGEANYAQKFQGRVTMTRDTSISTAYMELSRLRSDDTAVYYCARGPGSLDRLWYYYYGMDVWGQGTTVTVSS[human IgG1 constant region with changes not given here]
heavy 2: QVQLVQSGAEVKKPGSSVKVSCKASGGTESVDAISWVRQAPGQGLEWMGDIIPFFDTDYAQKFQGRVTITADESTSTAYMELSSLRSEDTAVYYCAREGGTSWTHFFDLWGRGTLVTVSSASTKGPSVFPLAPSSKSTSGGTAALGCLVKDYFPEPVTVSWNSGALTSGVHTFPAVLQSSGLYSLSSVVTVPSSSLGTQTYICNVNHKPSNTKVDKKV[human IgG1 Fc with changes not given here]
light: [about 200 residues not given here]
notes: human IgG1; made in HEK293; also called Anti-TIGIT/PVRIG bispecific antibody TP-001-002-003
For the molecule B2, the results for the Kd (in [1]; in the test with human PVRIG-his protein) were 0.31 nM and 0.0747 nM, respectively. In addition, the EC50 in test [2] came to 3.11 nM; in test [3], 172 nM; in test [4], 1.72 nM; in test [6], 60.5 nM. In addition, the binding result in test [11] is “binds”; in test [7], “no binding”. Also, the “EC50 (read off the curve)” value in [8] was around 0.6 nM. For the same molecule, the half-maximal inhibitory concentration (IC50) in test [9] was 2 nM.
